Assay results from patent US11185532B2, “Methods of treating pruritus” (Clexio Biosciences Ltd., priority 2019, dated 2021).

Target: T1, Adrenergic α1D (Homo sapiens, UniProt P25100)
T1 sequence (P25100 1-572): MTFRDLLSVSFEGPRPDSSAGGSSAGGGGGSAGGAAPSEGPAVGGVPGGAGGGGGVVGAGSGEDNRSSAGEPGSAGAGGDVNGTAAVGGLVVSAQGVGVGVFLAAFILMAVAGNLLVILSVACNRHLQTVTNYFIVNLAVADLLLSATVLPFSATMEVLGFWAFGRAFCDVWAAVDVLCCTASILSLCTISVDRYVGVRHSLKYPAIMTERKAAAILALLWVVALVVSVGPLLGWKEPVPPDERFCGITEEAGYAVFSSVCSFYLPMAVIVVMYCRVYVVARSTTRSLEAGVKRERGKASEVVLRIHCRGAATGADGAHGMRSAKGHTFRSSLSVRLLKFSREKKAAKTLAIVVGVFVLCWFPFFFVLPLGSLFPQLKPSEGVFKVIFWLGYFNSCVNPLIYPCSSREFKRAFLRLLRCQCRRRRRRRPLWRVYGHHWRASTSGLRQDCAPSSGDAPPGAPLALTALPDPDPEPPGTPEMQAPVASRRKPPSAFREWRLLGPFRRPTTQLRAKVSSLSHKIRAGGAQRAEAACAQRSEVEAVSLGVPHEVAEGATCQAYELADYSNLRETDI
Assay: biochemical

Which inhibition at 10 µM does the source give for Cc1cccc(Cc2c[nH]cn2)c1C [detomidine] here?
The inhibition at 10 µM was 95%.
